Among the data in paper PMC12136788 are binding signal values, retold here.

The other results are listed elsewhere or left out.

Sequences and labels used below:
T1: UNK ZnF1-3 (human, UniProt Q9C0B0 31-174)
T1 sequence: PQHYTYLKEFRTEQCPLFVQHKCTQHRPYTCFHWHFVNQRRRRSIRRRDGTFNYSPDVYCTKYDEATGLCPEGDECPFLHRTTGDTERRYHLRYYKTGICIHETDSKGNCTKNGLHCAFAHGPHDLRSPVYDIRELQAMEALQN

B1: 27142941_27143061_3044_3pUTR_ENSG00000154727_ENST00000400075|human|control|control (ssRNA)
RNA: GGGAGUUCUACAGUCCGACGAUCCAUUCCAAACCACUACCAGAAUUGCUAACAAUGCCAUCUUGCCUGUAUUAUCAUGCCUUUUUCUCCUAGUUAAGUCAAAAGCAUUAACUGAGCUCUUAAGAAGCUUUUUAAGAGGACAGACAACAGAGGAUUGAGCAUCA
B2: chr16:22092171:22092172:+_ENSG00000185716_ENST00000542527|hu_hu|FALSE|FALSE (ssRNA)
RNA: GGGAGUUCUACAGUCCGACGAUCCAAUUUAGACAUUCAUCAGCCUGGUAAACAAACUUUGCCAGCAAAUAGAAGUCCUACUAUUGUAAAGAAAAUUGAUAAGACAAAAAGUACAUAUGAUGACCCAACUACUGUGUUGUUGGGCAACAGAGGAUUGAGCAUCA
B3: chr6:40197388:40197389:+_ENSMUSG00000057716_ENSMUST00000061740|mus_mus|mus_mus_mus_hu_False|38_108 (ssRNA)
RNA: GGGAGUUCUACAGUCCGACGAUCGAGUUGUCAGUUUGGAUUUAUUCCACCUCUGUUUGGGUGCUAGCCACUAAGACUGUUAUUUUGGGAUUCAUGGCCUUGAAGAUCAAGAGGGAAAGGAAGAGGAUGGAAAGAGUCAAGAGUCAACAGAGGAUUGAGCAUCA
B4: 47073773_47074001_3129_CDS_ENSG00000130985_ENST00000335972|human|control|control (ssRNA)
RNA: GGGAGUUCUACAGUCCGACGAUCCAUGAAGAAGGAAUAGAGCAUGGACACGCCCUGGGACAGCAUGGUGAUCUCUAAUUUGUGCUCUGUCUUAAAAUAGUCGAGGAACUGUUUGAGGGUCAUCUCCUCACCAUUAGGCUGCAGCAACAGAGGAUUGAGCAUCA
B5: 123088758_123088878_90_5pUTR_ENSMUSG00000028114_ENSMUST00000029759|mouse|control|control (ssRNA)
RNA: GGGAGUUCUACAGUCCGACGAUCCUGCUCACCACCCCGACAGACUCCGCGCCCGCCAAAAUGCAAAUCCACCUGCCAAACCAGGAAACACCGGGUCCCGCCCCGCAGAGAUUCUGACCCGGAGACUUUCACGUCCCUCAGGAGCAACAGAGGAUUGAGCAUCA
B6: chr4:122741918:122741919:-_ENSG00000145386_ENST00000274026|hu_hu|motif|central (ssRNA)
RNA: GGGAGUUCUACAGUCCGACGAUCGUCUGGCUGUUUCUUCAUGUAACCCACUUUAGGUUUACAUUUAACCUCCAUUUCCCGGAGGUAUGUGUGAAUAUCCUCAUGGUAGUCUGGUACUUCAUUAACACUCACUGGCUUUUCAUCCAACAGAGGAUUGAGCAUCA
B7: 14352133_14352253_3167_3pUTR_ENSMUSG00000013076_ENSMUST00000013220|mouse|control|control (ssRNA)
RNA: GGGAGUUCUACAGUCCGACGAUCCUGUCCUGGUUUUGCAGUUGCUACUGCAACUGCCCAUCUGGAGCUCUUCUUUCAGCCUCUGUUCUCAUCUGUCAGCAUGCUGGCAAGCGCCACAGGACGACGCUAGAUGAGCACUUCCAUCAACAGAGGAUUGAGCAUCA
B8: chr8:38067834:38067835:+_ENSG00000156735_ENST00000287322|hu_mus|motif|central (ssRNA)
RNA: GGGAGUUCUACAGUCCGACGAUCCUUUGUCAGCAUUUCUUCCAGAAGCCAAUACGCUUUGUCUGUCUUUUUUCCGGCAAACUCUUCGGCUUCUUGCUCAAGAAACUGCACCUUCUCCAGCACAUGUAUGAUCUUUUUAAUACUCAACAGAGGAUUGAGCAUCA
B9: 125865521_125865641_1298_3pUTR_ENSMUSG00000033904_ENSMUST00000106557|mouse|control|control (ssRNA)
RNA: GGGAGUUCUACAGUCCGACGAUCUCUGGAGCAGCGGGAGGAGCAGCUCCUGCAGGCAGGUCUAUCUUAGAAAAGCUAGCUAAGCCUGCCGUGCCCAUGCUGCUUGCUUGUGAAGCACCUUGGAGGAGAACAUUUGACUUAUUACAACAGAGGAUUGAGCAUCA
B10: 90058951_90059071_3067_3pUTR_ENSG00000197147_ENST00000439853|human|control|control (ssRNA)
RNA: GGGAGUUCUACAGUCCGACGAUCUAGGGCUAGACACUCAGUUGCUUUAAUAAGACAUUUAGUUAUGGUUCAUCAUAAUAGUCACCCAUUCUUCAUCUUUAUUAACUUAGAAAAUUUUACUUCUCAUUUAAAGCCCUGGAGCAUCAACAGAGGAUUGAGCAUCA
B11: chr1:46159212:46159213:+_ENSG00000159596_ENST00000372025|hu_mus|hu_hu_hu_mus_True|18_88 (ssRNA)
RNA: GGGAGUUCUACAGUCCGACGAUCUCUGAUCCCUCCCAAGAAAGCUAGGAAACUGGCUCCAUAAGCCAUCUGAGUGAAAGCUAGGACGGGGAUAUAAGACUUUGUUAUUACCAUGAGCAGUGGUGGAGCAGUAAAGGGGAUUAACAACAGAGGAUUGAGCAUCA
B12: chr19:37005844:37005845:-_ENSG00000254004_ENST00000523638|hu_hu|FALSE|FALSE (ssRNA)
RNA: GGGAGUUCUACAGUCCGACGAUCAGAAACUUUUUCACAUUCAUAAGGUUUCUCUCCAGUGUGAUGUUUCUGAUGAGAAAGGAAGUUUUCCUUCUGGCUGAAGGCUUUUCCACAUUUAUUACAUUUAUAUGCCUUCUUUCCUGUCAACAGAGGAUUGAGCAUCA
B13: chr15:91426070:91426071:+_ENSG00000140564_ENST00000268171|hu_hu|motif|central (ssRNA)
RNA: GGGAGUUCUACAGUCCGACGAUCGGCAGCCAGGGAGGAGCAGGGCGGACGGUGGGUGUGAGAACGUGGGUAGUCCAGCUGCGGCCCCCAUUAAAAAUACAAAAACAAAUCAUCAGCAUCUAAAGUGAAAUAAUCACAAAGUGACAACAGAGGAUUGAGCAUCA
B14: chr8:29959424:29959425:+_ENSG00000104660_ENST00000321250|hu_hu|motif|central (ssRNA)
RNA: GGGAGUUCUACAGUCCGACGAUCGAAGGGCACAUCCAAGCAUCAAAAACAUCAGUCCGAUUGCUCCUCCAAAGGACAAACGGAUCAAAGCUUUGAUGCCUGCCAUGGCGGUGACGUCGCUCCUGGCUCCACGACCCGAGGCGGCAACAGAGGAUUGAGCAUCA

For this assay, the target named is T1, UNK ZnF1-3. Briefly: nsRBNS (natural sequence RNA bind-n-seq); RBNS binding buffer (assumed for nsRBNS): 25 mM Tris pH 7.5, 150 mM KCl, 3 mM MgCl2, 0.01% Triton X-100, 500 ug/ml BSA, 20 U/ml SUPERase-In, 4 C; UNK is unkempt and MSI1 is Musashi-1; names of the RNAs are library labels; protein concentration not given here; high values mean tight binding.
B1: the binding signal was found to be 1.42 enrichment R.

B2 came in with a binding signal of 0.51 enrichment R.

Molecule B3 registered a binding signal of 1.46 enrichment R.

As to B4, the binding signal worked out at 1.77 enrichment R.

B5 gave a binding signal of 1.21 enrichment R.

B6 returned a binding signal of 0.393 enrichment R.

In turn, B7 came in with a binding signal of 0.409 enrichment R.

In turn, B8 showed a binding signal of 0.313 enrichment R.

As for B9, the binding signal was found to be 0.805 enrichment R.

For the molecule B10, the binding signal turned out to be 1.09 enrichment R.

As for B11, the binding signal amounted to 1.56 enrichment R.

Regarding B12, the binding signal was 0.471 enrichment R.

For B13, the binding signal was 1.94 enrichment R.

For B14, the binding signal worked out at 1.49 enrichment R.
